From PubChem BioAssay AID463173 (ICCB-Longwood Screening Facility, Harvard Medical School, 2010) come the findings set out here.

Each structure is given as a SMILES string. Among all 52,000 compounds or so, about 4,300 (8.3%) were called active. No stated cut-off is given here; in the data, active means survival mostly below about 52% (no sharp cut-off); inactive means mostly above about 56%. The list shows a part of the results.

The test deals with DeltatarO mutant. Put plainly: growth inhibition of S. aureus wild type versus tarO mutant, primary screen, teichoic acid synthesis inhibitors, RN4220, OD600 (AID 463173). Particulars: OD600, 18 h, stronger effect = lower value, screened at 18.75 µg/mL (by protocol).
For `CCc1[nH]nc2c1C1(C(=O)Nc3ccc(Cl)cc31)C(C#N)=C(N)O2` (stereo not drawn), the survival is inactive: 78%.

For `COc1ccc(-c2noc(CSc3nnc(Cc4ccccc4)n3-c3ccc(F)cc3)n2)cc1`, the survival was inactive: 62%.

Take `CN(CC(=O)Nc1ccc(F)cc1F)S(=O)(=O)c1cccc2nsnc12`: the survival is inactive: 92%.

`CCCCN1C2CCCC1CC(NC(=O)C1CCCCC1)C2` (stereo not drawn): the survival is inactive: 51%.

With `CCN(CC)CCCNC(=O)c1sc2nc3n(c(=O)c2c1C)CCCCC3`, the survival is inactive: 111%.

For `Cc1ccc(CN2CCC(CNC(=O)c3cnn(-c4ccc(C)cc4)c3C3CCN(C(=O)OC(C)(C)C)CC3)CC2)cc1`, the survival was inactive: 97%.

As for `CCOC(=O)CN1C(=O)N(c2ccc(C)c(C)c2)S(=O)(=O)c2ccccc21`, the survival was inactive: 80%.

For the compound `Cc1ccc(S(=O)(=O)N(CC(=O)Nc2cccnc2)c2cc(Cl)ccc2C)cc1`, the survival was inactive: 78%.

Take `O=C(CSc1ccccc1)NN1C(=O)c2ccccc2C1=O`: the survival is inactive: 102%.

As to `COc1ccc(NC(=O)CC2C(=O)N(c3ccccc3)C(=O)N2CCc2sccc2C)cc1` (stereo not drawn), the survival is inactive: 65%.

`Cc1cccc(NC(=O)CCCn2nc(C)c3c(C)n(-c4ccccc4)nc3c2=O)c1C`: the survival is inactive: 70%.

With `COc1ccc(Nc2ncc3c(n2)CCN(Cc2sccc2C)C3)c(OC)c1`, the survival is inactive: 73%.

Turning to `COc1ccc2c(CNCCc3ccco3)c(C(=O)O)n(Cc3ccc(C)cc3)c2c1`, the survival was inactive: 73%.

With `Cc1ccc(-n2ncc3c(NCCCN(C)C)ncnc32)cc1Cl`, the survival was inactive: 95%.

With `O=C(Cn1ncc2c3ccccc3n(Cc3ccccc3)c2c1=O)NCc1ccccn1`, the survival was inactive: 82%.

Take `Cc1ccccc1CNC(=O)C1CCCCN1S(=O)(=O)c1ccc(F)cc1` (stereo not drawn): the survival is inactive: 102%.

Regarding `O=[N+]([O-])c1ccc(S(=O)(=O)N2CCn3cccc3C2c2ccc(Br)cc2)cc1` (stereo not drawn), the survival was inactive: 75%.

Regarding `COc1ccc(C(CNC(=O)c2oc3cc(Br)ccc3c2C)N2CCCCC2)cc1` (stereo not drawn), the survival is inactive: 92%.

With `COc1ccc(OC)c(-c2cc(C(=O)Nc3c(C)nn(Cc4ccc(C)cc4)c3C)no2)c1`, the survival is active: 34%.

For the compound `Cc1ccc(NC(=O)c2c(C)oc3ccc(O)c(CN4CCN(Cc5ccccc5)CC4)c23)cc1`, the survival is inactive: 69%.

Take `Cc1ccc(-n2nc(C(=O)N(C)c3ccc(C)c(C)c3)c3c4ccccc4n(C)c3c2=O)cc1`: the survival was inactive: 83%.

In the case of `CCOc1ccc(CNC(=O)c2ccc(CSc3nc4ccncc4n3Cc3ccc(F)cc3)cc2)cc1`, the survival is inactive: 69%.

For the compound `COc1cccc(NC(=O)c2oc3ccccc3c2NC(=O)c2ccccc2C)c1`, the survival is active: 43%.

For the compound `O=C(CC1N=C2c3ccccc3N=C(SCc3cccc(F)c3)N2C1=O)NCc1cccs1` (stereo not drawn), the survival is inactive: 91%.

On to `COc1cccc(-c2cc(C(=O)Nc3cnn(Cc4ccc(Cl)cc4Cl)c3)no2)c1`, for which the survival is inactive: 101%.

On to `Cc1nn(-c2ccccc2)c2nc(C3CC3)cc(C(=O)Nc3cccc(F)c3)c12`, for which the survival was inactive: 93%.

On to `CC(C)CCNc1nc2c(-c3ccccc3)nnn2c2ccccc12`, for which the survival is inactive: 84%.

Regarding `COc1ccc(Cn2ccc3nc(C)c(C(=O)N4CCN(c5ccc(F)cc5)CC4)cc3c2=O)cc1`, the survival is inactive: 75%.

With `Cc1ccccc1NC(=O)c1c(NC(=O)c2ccccc2F)sc2c1CCC(C)C2` (stereo not drawn), the survival was inactive: 63%.

In the case of `CCCCN1C(=O)c2[nH]nc(-c3ccccc3O)c2C1c1ccc(OCc2ccccc2)c(OC)c1` (stereo not drawn), the survival was active: 35%.

As for `COc1ccccc1NC(=O)c1ncn(-c2ccccc2)n1`, the survival is inactive: 115%.

As for `CCOC(=O)c1cccc(NC(=O)CCc2c(C)nn(-c3ccc(N4CCCCC4)nn3)c2C)c1`, the survival was inactive: 99%.

Consider `Cc1ccc(Sc2c(C)nn(C(C)(C)C)c2OC(=O)CC(C)C)cc1`, for which the survival was active: -9%.

On to `Cc1c(C(=O)OC2CCC(C)CC2)[nH]c2c1C(=O)CC(c1ccc(F)cc1)C2` (stereo not drawn), for which the survival is inactive: 93%.

In the case of `C(=N\c1nc2ccccc2n1Cc1ccccc1)/c1ccc2c(c1)OCO2`, the survival is inactive: 70%.

For the compound `Cc1ccc(CNC(=O)CCNS(=O)(=O)c2ccc3c(c2)CCCC(=O)N3)cc1`, the survival was inactive: 72%.

As to `CCCCN(CCCC)CCCNC(=O)c1ccc2nc(N3CCCCC3)sc2c1`, the survival was inactive: 102%.

For `COc1ccc2c(c1)c1c(c(=O)n(-c3cc(Cl)ccc3C)c(=O)n1CC(=O)N1CCCC1)n2C`, the survival was inactive: 83%.

For `COc1ccc(-c2nnn3c2nc(NCCc2ccc(OC)c(OC)c2)c2ccccc23)cc1`, the survival was inactive: 66%.

Turning to `Cc1nn2c(=O)cc(COc3ccc(/C=C(\C#N)C(=O)Nc4ccccc4C)cc3)nc2s1`, the survival is inactive: 49%.

Consider `COc1ccc(OC)c(Nc2nc3ccccc3nc2-n2nc(C)cc2C)c1`, for which the survival is active: 16%.

With `CCN(CC)S(=O)(=O)c1ccc(Cl)c(OC)c1`, the survival was inactive: 101%.

For `CCCc1cc(=O)[nH]c(SCc2nc(-c3ccc(OCC)cc3)no2)n1`, the survival was inactive: 55%.

Consider `Cc1ccc(-c2noc(-c3ccc(N4CCCC4)c([N+](=O)[O-])c3)n2)cc1`, for which the survival was inactive: 103%.

Consider `Cc1ccc(C(=O)Nc2c(C(=O)Nc3ccc(C)c(C)c3)sc3nc(C)cc(C)c23)cc1`, for which the survival was inactive: 54%.

Consider `CC1(C)CC(NS(=O)(=O)c2ccccc2)CC(C)(C)N1`, for which the survival is inactive: 74%.

Take `Cc1ccc(C2C=C(c3ccccc3)Nc3nc(NS(C)(=O)=O)nn32)cc1` (stereo not drawn): the survival was inactive: 67%.

Consider `Cc1c(-c2ccccc2)c(=O)oc2c(CN3CCOCC3)c(O)ccc12`, for which the survival is inactive: 55%.

As for `COc1ccc(NC(=O)C2CCN(c3cc(C)nc4c(-c5ccc(Cl)cc5)c(C)nn34)CC2)cc1`, the survival was inactive: 90%.

Take `CCc1cccc(C)c1NC(=O)CSc1nc2ccncc2[nH]1`: the survival is inactive: 137%.

For `CCN(CC)S(=O)(=O)c1ccc(-n2cnnn2)c(C)c1`, the survival is inactive: 111%.

With `COc1cc(-c2cc(OC)c3c(C)oc(C)c3c(=O)c2)ccc1OC(=O)c1cccc(C)c1`, the survival is inactive: 91%.

Take `Cc1nn(S(=O)(=O)c2ccc(F)cc2)c(C)c1S(=O)(=O)N1CCCCCC1`: the survival is inactive: 64%.

As for `CC(C)Nc1nc(Cl)nc(NCCO)n1`, the survival was inactive: 110%.

As for `Cc1ccc(CNC(=O)c2ccc3c(c2)c(C)c(C)n3Cc2ccc(Cl)cc2)o1`, the survival was inactive: 75%.

In the case of `Cc1ccc(/C=C/C(=O)Nc2ccc3nc(N4CCC(C)CC4)cc(C)c3c2)cc1`, the survival is inactive: 122%.

`CCOc1ccc(C(=O)Nc2ccc3nc(N(CC)CC)cc(C)c3c2)cc1`: the survival is inactive: 70%.

With `Cc1cc(N2CCC(C(=O)Nc3ccc(F)cc3F)CC2)n2nc(C)c(-c3ccc(Cl)cc3)c2n1`, the survival is inactive: 86%.

On to `Cn1c(=O)oc2cc(S(=O)(=O)NC(Cc3ccccc3)C(=O)Nc3ccc(F)c(Cl)c3)ccc21` (stereo not drawn), for which the survival is inactive: 83%.

With `CCOC(=O)C1CCN(Cc2cn3c(-c4ccc(OC)cc4)nnc3s2)CC1`, the survival was inactive: 66%.

In the case of `COc1cccc(NS(=O)(=O)c2ccc3[nH]cc(C(=O)NC(C)c4ccccc4)c(=O)c3c2)c1` (stereo not drawn), the survival is active: 37%.

On to `Cc1ccccc1CN1CCCN(CC(=O)Nc2ccc(F)cc2)S1(=O)=O`, for which the survival was inactive: 93%.

With `Cc1cccc(NC(=O)c2cn(-c3ccccc3)nc2-c2ccccc2)c1C`, the survival is inactive: 97%.

With `CCOC(=O)c1c(C)oc2nc(C)nc(NCCc3ccc(Cl)cc3)c12`, the survival was inactive: 99%.

Turning to `Cc1ccc(NC(=O)Cn2c(=O)n(Cc3ccc4c(c3)OCO4)c(=O)c3oc4ccccc4c32)cc1C`, the survival was inactive: 53%.

In the case of `CC(C)c1ccc(NC(=O)Cn2nnc(C(=O)NCc3ccc4c(c3)OCO4)c2N)cc1`, the survival is inactive: 75%.

Consider `CCc1cccc(NC(=O)c2ccc3c(c2)N(Cc2cccc(Cl)c2)C(=O)c2ccccc2S3=O)c1` (stereo not drawn), for which the survival is inactive: 78%.

Consider `CCOC(=O)c1c(-c2ccc(C)cc2)csc1NC(=O)c1cc(-c2ccc(OC)cc2)on1`, for which the survival is inactive: 49%.

In the case of `COc1ccc(-c2cc(C(F)(F)F)nc(SCCC(=O)N3CCN(C)CC3)n2)cc1`, the survival is inactive: 114%.

As for `Cc1cccc(N(C)C(=O)CCS(=O)(=O)c2ccc3c(c2)n(C)c(=O)c(=O)n3C)c1`, the survival is inactive: 81%.

In the case of `CCN(c1cccc(C)c1)S(=O)(=O)c1cc2c(cc1C)n(C)c(=O)c(=O)n2C`, the survival was inactive: 85%.

Regarding `COc1ccc(OCCSc2nc(C)cc(=O)[nH]2)cc1`, the survival was inactive: 81%.

Turning to `CCOc1cccc2sc(NC(=O)c3ccc(S(=O)(=O)N4CCCCC4C)cc3)nc12` (stereo not drawn), the survival was active: 37%.

As for `O=C(c1cc(-c2ccc(Cl)cc2)n[nH]1)N1CCN(S(=O)(=O)c2ccc(Br)s2)CC1`, the survival is inactive: 86%.

For the compound `CCOC(=O)c1c(C)[nH]c(C)c1S(=O)(=O)N1CCN(c2cc(Cl)ccc2C)CC1`, the survival was inactive: 108%.

`Cc1nnc(NC(=O)c2nc(SC(C)C)ncc2Cl)s1`: the survival was inactive: 72%.

Take `CCOc1ccc(NC(=O)c2sc(-n3nc(C)c(Cc4ccc(Cl)cc4)c3C)nc2C)cc1`: the survival was inactive: 73%.

For the compound `Clc1ccccc1Cn1c(-c2cccs2)nc2ccccc21`, the survival was active: 11%.

As to `CCOC(=O)C1Cc2c([nH]c3ccccc23)CN1` (stereo not drawn), the survival was inactive: 86%.

As for `CCN(CC)CCCNC(=O)c1ccc2c(c1)sc1nc(-c3ccc(C)cc3)cn12`, the survival is active: 24%.

As for `CCCCOc1ccc(C(=O)Nc2cc(-c3cn4cccnc4n3)ccc2OC)cc1`, the survival is inactive: 84%.

With `COc1ccc(CCNS(=O)(=O)c2c(C)nc3sc(C)cn3c2=O)cc1OC`, the survival was inactive: 96%.

Turning to `Cc1cc(Nc2cccc(C(=O)O)c2)n2nc(C)nc2n1`, the survival is inactive: 115%.

In the case of `Cc1cccc(NC(=O)CN(C)S(=O)(=O)c2ccc3c(c2)c(=O)n(C)c(=O)n3C)c1C`, the survival was inactive: 135%.

Regarding `C=Cn1cccc1C(=O)O`, the survival is inactive: 83%.

For `COc1ccc(-c2nc3ccccc3o2)cc1NC(=O)c1cccnc1`, the survival was active: 45%.

Take `COc1ccc(CCNC(=O)c2ccc3c(c2)N=C(C)c2ccccc2S3)cc1OC`: the survival is inactive: 71%.

As for `CCCn1c2ccccc2c2cnn(CC(=O)NCCN(CC)CC)c(=O)c21`, the survival was inactive: 54%.
